T1: RBFOX1 RRM (Homo sapiens, UniProt Q9NWB1 109-208)
T1 sequence: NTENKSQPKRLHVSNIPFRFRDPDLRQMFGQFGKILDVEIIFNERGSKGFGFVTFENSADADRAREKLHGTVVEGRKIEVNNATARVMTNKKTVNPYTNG

B1: GUGCUAA (DNA:RNA)
RNA: GGGAGACCGGAAUUCAGAUUGUCCGUGCUAAUUAAAUCCCGUCGUAGCCACCA
DNA 1: CAATCTGAATTCCGGTCTCCC
DNA 2: TGGTGGCTACGACGGGATT
B2: GGCGCCC (DNA:RNA)
RNA: B1 RNA with U26G, G27C, C28G, U29C, A30C, A31C
DNA 1: CAATCTGAATTCCGGTCTCCC
DNA 2: TGGTGGCTACGACGGGATT
B3: CUGUAUA (DNA:RNA)
RNA: B1 RNA with G25C, C28U, U29A, A30U
DNA 1: CAATCTGAATTCCGGTCTCCC
DNA 2: TGGTGGCTACGACGGGATT
B4: GCAGGCA (DNA:RNA)
RNA: B1 RNA with U26C, G27A, C28G, U29G, A30C
DNA 1: CAATCTGAATTCCGGTCTCCC
DNA 2: TGGTGGCTACGACGGGATT
B5: GUGAUCU (DNA:RNA)
RNA: B1 RNA with C28A, A30C, A31U
DNA 1: CAATCTGAATTCCGGTCTCCC
DNA 2: TGGTGGCTACGACGGGATT
B6: ACGAUAU (DNA:RNA)
RNA: B1 RNA with G25A, U26C, C28A, A31U
DNA 1: CAATCTGAATTCCGGTCTCCC
DNA 2: TGGTGGCTACGACGGGATT
B7: UGAUAUU (DNA:RNA)
RNA: GGGAGACCGGAAUUCAGAUUGUCCUGAUAUUUUAAAUCCCGUCGUAGCCACCA
DNA 1: CAATCTGAATTCCGGTCTCCC
DNA 2: TGGTGGCTACGACGGGATT
B8: AUUUUUA (DNA:RNA)
RNA: B1 RNA with G25A, G27U, C28U, A30U
DNA 1: CAATCTGAATTCCGGTCTCCC
DNA 2: TGGTGGCTACGACGGGATT
B9: UAUGGAA (DNA:RNA)
RNA: B1 RNA with G25U, U26A, G27U, C28G, U29G
DNA 1: CAATCTGAATTCCGGTCTCCC
DNA 2: TGGTGGCTACGACGGGATT
B10: GGUAAGG (DNA:RNA)
RNA: B7 RNA with U25G, A27U, U28A, U30G, U31G
DNA 1: CAATCTGAATTCCGGTCTCCC
DNA 2: TGGTGGCTACGACGGGATT
B11: GGGACAG (DNA:RNA)
RNA: B1 RNA with U26G, C28A, U29C, A31G
DNA 1: CAATCTGAATTCCGGTCTCCC
DNA 2: TGGTGGCTACGACGGGATT
B12: UAACCCA (DNA:RNA)
RNA: B1 RNA with G25U, U26A, G27A, U29C, A30C
DNA 1: CAATCTGAATTCCGGTCTCCC
DNA 2: TGGTGGCTACGACGGGATT
B13: CAGUCCU (DNA:RNA)
RNA: B7 RNA with U25C, G26A, A27G, A29C, U30C
DNA 1: CAATCTGAATTCCGGTCTCCC
DNA 2: TGGTGGCTACGACGGGATT
B14: CACGGUG (DNA:RNA)
RNA: B7 RNA with U25C, G26A, A27C, U28G, A29G, U31G
DNA 1: CAATCTGAATTCCGGTCTCCC
DNA 2: TGGTGGCTACGACGGGATT
B15: GAUUUAG (DNA:RNA)
RNA: B1 RNA with U26A, G27U, C28U, A31G
DNA 1: CAATCTGAATTCCGGTCTCCC
DNA 2: TGGTGGCTACGACGGGATT
B16: GCGAUAG (DNA:RNA)
RNA: B1 RNA with U26C, C28A, A31G
DNA 1: CAATCTGAATTCCGGTCTCCC
DNA 2: TGGTGGCTACGACGGGATT
B17: GUGGACC (DNA:RNA)
RNA: B1 RNA with C28G, U29A, A30C, A31C
DNA 1: CAATCTGAATTCCGGTCTCCC
DNA 2: TGGTGGCTACGACGGGATT
B18: CAGGACC (DNA:RNA)
RNA: B1 RNA with G25C, U26A, C28G, U29A, A30C, A31C
DNA 1: CAATCTGAATTCCGGTCTCCC
DNA 2: TGGTGGCTACGACGGGATT
B19: GUACCUG (DNA:RNA)
RNA: B1 RNA with G27A, U29C, A30U, A31G
DNA 1: CAATCTGAATTCCGGTCTCCC
DNA 2: TGGTGGCTACGACGGGATT
B20: CUAACUC (DNA:RNA)
RNA: B7 RNA with U25C, G26U, U28A, A29C, U31C
DNA 1: CAATCTGAATTCCGGTCTCCC
DNA 2: TGGTGGCTACGACGGGATT
B21: AGCUAAG (DNA:RNA)
RNA: B7 RNA with U25A, A27C, U30A, U31G
DNA 1: CAATCTGAATTCCGGTCTCCC
DNA 2: TGGTGGCTACGACGGGATT
B22: GUAGACC (DNA:RNA)
RNA: B1 RNA with G27A, C28G, U29A, A30C, A31C
DNA 1: CAATCTGAATTCCGGTCTCCC
DNA 2: TGGTGGCTACGACGGGATT
B23: CUAGUCG (DNA:RNA)
RNA: B1 RNA with G25C, G27A, C28G, A30C, A31G
DNA 1: CAATCTGAATTCCGGTCTCCC
DNA 2: TGGTGGCTACGACGGGATT
B24: CAAUGGU (DNA:RNA)
RNA: B7 RNA with U25C, G26A, A29G, U30G
DNA 1: CAATCTGAATTCCGGTCTCCC
DNA 2: TGGTGGCTACGACGGGATT
B25: GCGACAG (DNA:RNA)
RNA: B1 RNA with U26C, C28A, U29C, A31G
DNA 1: CAATCTGAATTCCGGTCTCCC
DNA 2: TGGTGGCTACGACGGGATT
B26: GCUAGCG (DNA:RNA)
RNA: B1 RNA with U26C, G27U, C28A, U29G, A30C, A31G
DNA 1: CAATCTGAATTCCGGTCTCCC
DNA 2: TGGTGGCTACGACGGGATT
B27: CGAGCGA (DNA:RNA)
RNA: B7 RNA with U25C, U28G, A29C, U30G, U31A
DNA 1: CAATCTGAATTCCGGTCTCCC
DNA 2: TGGTGGCTACGACGGGATT
B28: AACCCAU (DNA:RNA)
RNA: B1 RNA with G25A, U26A, G27C, U29C, A31U
DNA 1: CAATCTGAATTCCGGTCTCCC
DNA 2: TGGTGGCTACGACGGGATT
B29: AAGGUUC (DNA:RNA)
RNA: B1 RNA with G25A, U26A, C28G, A30U, A31C
DNA 1: CAATCTGAATTCCGGTCTCCC
DNA 2: TGGTGGCTACGACGGGATT
B30: AUCUUGG (DNA:RNA)
RNA: B1 RNA with G25A, G27C, C28U, A30G, A31G
DNA 1: CAATCTGAATTCCGGTCTCCC
DNA 2: TGGTGGCTACGACGGGATT
B31: UCGUUAG (DNA:RNA)
RNA: B1 RNA with G25U, U26C, C28U, A31G
DNA 1: CAATCTGAATTCCGGTCTCCC
DNA 2: TGGTGGCTACGACGGGATT

Positions count from the first letter of the chain named. The list shows a part of the results.

Our source for the binding signal values is article PMC9911399, “Two distinct binding modes provide the RNA-binding protein RbFox with extraordinary sequence specificity”.

In this assay the target is T1, RBFOX1 RRM. Briefly: EMSA; HiTS-Eq, 1 nM pool, 10 min; buffer printed only for the single-RNA assays: 10 mM Tris pH 7.5, 150 mM NaCl, 3.4 mM EDTA, 0.001% NP-40, 30 C. The following applies: tags: His6 N-terminal (pET28a); label: 5' 32P. The essentials:
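Relative association constants, normalised to the cognate motif, were derived by comparing read counts of each RNA species with those of the control reaction. The RNA sequenced was the free fraction, separated by 8% native PAGE after a 10 min equilibration in 50 µL of 1 nM 5′-radiolabelled RNA (7 randomized nucleotides) with increasing concentrations of purified wild-type or mutant RbFox RRM.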
As to B1, the binding signal was 0.0105 KA relative to UGCAUGU.

For the molecule B2, the binding signal was 0.00325 KA relative to UGCAUGU. Regarding B3, the binding signal is 0.00639 KA relative to UGCAUGU. With B4 the figure was 0.0204 KA relative to UGCAUGU.

For B5, the binding signal is 0.0154 KA relative to UGCAUGU.

Consider B6, for which the binding signal was 0.00456 KA relative to UGCAUGU. To B7 belongs 0.01 KA relative to UGCAUGU; to B8, 0.00169 KA relative to UGCAUGU. To B9 belongs 0.00514 KA relative to UGCAUGU. B10: the binding signal is 0.00518 KA relative to UGCAUGU. To B11 belongs 0.0312 KA relative to UGCAUGU; to B12, 0.000379 KA relative to UGCAUGU; to B13, 0.00507 KA relative to UGCAUGU.

As to B14, the binding signal was 0.0129 KA relative to UGCAUGU.

Consider B15, for which the binding signal is 0.0121 KA relative to UGCAUGU. With B16 the figure was 0.0166 KA relative to UGCAUGU; with B17, 0.0137 KA relative to UGCAUGU; with B18, 0.00449 KA relative to UGCAUGU. To B19 belongs 0.0127 KA relative to UGCAUGU; to B20, 0.00388 KA relative to UGCAUGU; to B21, 0.00985 KA relative to UGCAUGU. With B22 the figure was 0.00522 KA relative to UGCAUGU; with B23, 0.00925 KA relative to UGCAUGU. Take B24: the binding signal was 0.0107 KA relative to UGCAUGU. Consider B25, for which the binding signal was 0.0128 KA relative to UGCAUGU. To B26 belongs 0.0161 KA relative to UGCAUGU; to B27, 0.0122 KA relative to UGCAUGU; to B28, 0.00045 KA relative to UGCAUGU.

B29: the binding signal was 0.0106 KA relative to UGCAUGU.

As for B30, the binding signal was 0.0117 KA relative to UGCAUGU. With B31 the figure was 0.0174 KA relative to UGCAUGU.
